# Results from PubChem BioAssay (NCATS).
# Inconclusive results, whose numbers are uncertain, are shown with a selection of clear calls. For some assays here: Potencies of inconclusive entries are left out as doubtful fits. The source made the active and inactive calls. The call rests on the fitted dose curve; in most records, active means well fitted curve in the direction sought with a large enough effect; inconclusive means small, poorly fitted or top-dose-only effect, or another doubt; inactive means no such curve, though single readings can be large; an effect the other way counts as inactive or inconclusive.
# Columns and labels:
# [1] = qHTS of pediatric cancer cell lines to identify multiple opportunities for drug repurposing: Primary screen for SK-N-MC cells (AID 1347093); conditions: SK-N-MC viability, CellTiter-Glo luminescence, 48 h; activity change, negative = cytotoxic: at 46 µM (top of the series); further: potency means the concentration at half of the fitted maximal effect
# Method in brief: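 Metabolically active cells were quantified by ATP-dependent luminescence (CellTiter-Glo, 15 min at room temperature) following 48 h treatment. Cells had been plated at 500-1,000 per well and settled for 5 h beforehand.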
# [2] = qHTS of pediatric cancer cell lines to identify multiple opportunities for drug repurposing: Primary screen for RD cells (AID 1347104); further: nearly all actives have a fitted effect of over 55% in size; further: potency means the concentration at half of the fitted maximal effect;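 on activity change, negative = cytotoxic: plate controls were DMSO for no effect and bortezomib for full effect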
# Method in brief: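 Viability was measured as metabolically active cells after 48 hours of treatment, read by CellTiter-Glo luminescence. Compounds were tested at multiple final concentrations, giving concentration-response curves.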
# [3] = tested on: Zika virus NS2B-NS3 protease; assay: Primary screen GU AMC qHTS for Zika virus inhibitors (AID 1347154); further: potency means the concentration at half of the fitted maximal effect; nearly all actives have a fitted effect of over 70% in size
# Method in brief: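 Unlinked Zika NS2B hydrophilic domain–NS3 protease complex at 25 nM in 10 mM Tris-HCl pH 8.0, 0.01% Tween 20, with an AMC peptide substrate. Fluorescence change (340/450 nm) over 15 min at room temperature, normalized to controls, fitted to 4-parameter Hill.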
# [4] = Quantitative High-Throughput drug screen in 47 multiple myeloma cell lines against the NCATS MIPE library collection: EJM_DSMZ cell viability assay (AID 1918926; further: potency means the concentration at half of the fitted maximal effect; nearly all actives have a fitted effect of over 30% in size)
# Method in brief: (§1)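 Steps: seed 500 cells per well; pin-transfer MIPE 4.0 library; incubate 48 h at 37C, 5% CO2, humidified; add CellTiter-Glo, 5 min room temperature; read luminescence.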
# [5] = Quantitative High-Throughput drug screen in 47 multiple myeloma cell lines against the NCATS MIPE library collection: AMO1_DSMZ cell viability assay (AID 1918927; further: potency means the concentration at half of the fitted maximal effect; nearly all actives have a fitted effect of over 30% in size)
# Method in brief: as §1
# [6] = Quantitative High-Throughput drug screen in 47 multiple myeloma cell lines against the NCATS MIPE library collection: KMM1_JCRB cell viability assay (AID 1918960); further: nearly all actives have a fitted effect of over 30% in size; further: potency means the concentration at half of the fitted maximal effect
# Method in brief: (§2)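 Myeloma cells at 500 per well in 1536-well format treated with MIPE 4.0 library by pin transfer for 48 h at 37C, 5% CO2. Viability from ATP luminescence (CellTiter-Glo), normalized to DMSO (100%) and media-only (0%) wells.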
# [7] = Quantitative High-Throughput drug screen in 47 multiple myeloma cell lines against the NCATS MIPE library collection: KMS12BM_JCRB cell viability assay (AID 1918971); further: nearly all actives have a fitted effect of over 35% in size; further: potency means the concentration at half of the fitted maximal effect
# Method in brief: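 Luminescent ATP measurement with CellTiter-Glo gives viability, scaled between DMSO-only wells (100%) and media-only wells (0%). Cells, 500 per well, faced library compounds for 48 hours at 37C.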
# [8] = Quantitative High-Throughput drug screen in 47 multiple myeloma cell lines against the NCATS MIPE library collection: KMS11_JCRBsus cell viability assay (AID 1919873); further: potency means the concentration at half of the fitted maximal effect; nearly all actives have a fitted effect of over 50% in size
# Method in brief: (§3)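 500 cells/well per myeloma line exposed to pinned MIPE 4.0 compounds for 48 h at 37 °C, 5% CO2. Viability read as ATP by CellTiter-Glo luminescence, normalised to DMSO-only (100%) and media-only (0%) wells.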
# PA-1 = assay: Primary qHTS to identify gynecologic anti-cancer compounds using libraries of approved drugs and bioactive compounds (AID 1345084); conditions: Gynecologic cancer cell panel viability, ATPlite luminescence, 48 h; series mostly up to 57.5 µM; further: nearly all actives have a fitted effect of over 55% in size; further: potency means the concentration at half of the fitted maximal effect; on activity change, negative = cytotoxicity: on the % scale 0 is the no-effect control and ±100 the full control effect
# Method in brief: (§4)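 Luminescence from the ATPlite ATP-monitoring reagent indicates viable cell number; lower signal means cytotoxicity. Cells received compound 16 h after seeding and were exposed for 48 h across five concentrations.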
# [9] = Primary qHTS for small molecule stabilizers of the endoplasmic reticulum resident proteome: Secreted ER Calcium Modulated Protein (SERCaMP) assay (AID 1508630); conditions: SH-SY5Y GLuc-SERCaMP (Gaussia luciferase released on ER calcium loss) secretion, thapsigargin, luminescence; activity change, negative = inhibition: at 38.4 µM (top of the series); further: potency means the concentration at half of the fitted maximal effect; on activity change, negative = inhibition: on the % scale 0 is the no-effect control and ±100 the full control effect
# Method in brief: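 GLuc-SERCaMP-expressing SH-SY5Y cells, pretreated 16 h with compound, are challenged with thapsigargin to empty ER calcium stores; after 4 h, coelenterazine is added directly to the medium and luminescence is imaged.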
# [10] = Quantitative High-Throughput drug screen in 47 multiple myeloma cell lines against the NCATS MIPE library collection: Karpas620_DSMZ cell viability assay (AID 1918959); further: nearly all actives have a fitted effect of over 30% in size; further: potency means the concentration at half of the fitted maximal effect
# Method in brief: (§5)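 Myeloma cell lines, 500 cells per well, exposed to MIPE 4.0 library compounds for 48 h at 37C, 5% CO2. Viability from ATP by CellTiter-Glo luminescence; normalised to DMSO (100%) and media-only (0%) wells.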
# [11] = Quantitative High-Throughput drug screen in 47 multiple myeloma cell lines against the NCATS MIPE library collection: KMS12PE_JCRB cell viability assay (AID 1918972); further: nearly all actives have a fitted effect of over 30% in size; further: potency means the concentration at half of the fitted maximal effect
# Method in brief: as §5
# [12] = Quantitative High-Throughput drug screen in 47 multiple myeloma cell lines against the NCATS MIPE library collection: RPMI8226_ATCC cell viability assay (AID 1919871); further: nearly all actives have a fitted effect of over 30% in size; further: potency means the concentration at half of the fitted maximal effect
# Method in brief: as §3
# [13] = Quantitative High-Throughput drug screen in 47 multiple myeloma cell lines against the NCATS MIPE library collection: ARP1_JJKsccF8 cell viability assay (AID 1918928; further: potency means the concentration at half of the fitted maximal effect; nearly all actives have a fitted effect of over 40% in size); conditions: ARP1 myeloma cells viability, CellTiter-Glo ATP, 48 h; viability: at 45.8 µM (top of the series)
# Method in brief: as §2
# [14] = Quantitative High-Throughput drug screen in 47 multiple myeloma cell lines against the NCATS MIPE library collection: U266_ATCC cell viability assay (AID 1919864); further: potency means the concentration at half of the fitted maximal effect; nearly all actives have a fitted effect of over 35% in size
# Method in brief: as §3
# [15] = Quantitative High-Throughput drug screen in 47 multiple myeloma cell lines against the NCATS MIPE library collection: PCM6_Riken cell viability assay (AID 1919870)
# Method in brief: as §3
# [16] = qHTS Assay for Identifying Gametocytocidal Compounds (AID 743244);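 further: on the % scale 0 is the no-effect control and ±100 the full control effect; actives lower the fluorescent signal which means gametocytes are killed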; conditions: P. falciparum 3D7 stage III-V gametocytes, alamarBlue, 72 h; max response: stronger effect = lower value
# Method in brief: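 Compounds are pinned into medium, gametocytes (stage III–V, 3D7, 20,000 cells/well) added, and plates held 72 h at 37 °C in 5% CO2. AlamarBlue follows for 24 h before fluorescence reading.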
# CASKI = assay: Primary qHTS to identify gynecologic anti-cancer compounds using libraries of approved drugs and bioactive compounds (AID 1345084); conditions: Gynecologic cancer cell panel viability, ATPlite luminescence, 48 h; activity change, negative = cytotoxicity: at 57.5 µM (top of the series); further: nearly all actives have a fitted effect of over 55% in size; further: potency means the concentration at half of the fitted maximal effect; on activity change, negative = cytotoxicity: on the % scale 0 is the no-effect control and ±100 the full control effect
# Method in brief: as §4
# [17] = qHTS assay to identify inhibitors of the type 1 interferon - major histocompatibility complex class I in skeletal muscle: Counter screen cell viability and HiBit confirmation (AID 1347412); conditions: iHSKM muscle cells + IFN-b, HiBiT or CellTiter-Glo, 24 h; Viability; further: potency means the concentration at half of the fitted maximal effect; nearly all actives have a fitted effect of over 60% in size
# Method in brief: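 CRISPR HLA-B*08:01-HiBit immortalized human myoblasts (C25cl48) stimulated with 4 ng/ml IFN-beta and compounds (12-point 1:3, top 46 uM final) for 24 h at 37 C. Duplicate plates read by HiBit lytic luminescence or CellTiter Glo ATP.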
# Tags describe the fitted curve by direction and shape.
compound,measurement,setting,value
CC(=O)Nc1sc2c(c1-c1nc3ccccc3s1)CNC2,Potency,[1],"inconclusive [cytotoxic, full curve, poor fit]"
same,Potency,[2],"inconclusive [cytotoxic, partial curve]"
same,Potency,[3],"inconclusive [inhibitor, partial curve, poor fit]"
same,Potency,[4],active: 23.5 µM
same,Potency,[5],"inconclusive [cytotoxic, partial curve, poor fit]"
same,Potency,[6],inactive
same,Potency,[7],active: 11.8 µM
same,Potency,[8],active: 13.2 µM
same,Potency,PA-1,active: 31.6 µM
CCN(CC)CCn1c(=O)c(Cc2ccc(OC)cc2)nc2ccccc21,Potency,[2],inactive
same,Potency,[9],"inconclusive [inhibitor, single point]"
same,Potency,[10],inactive
same,Potency,[7],inactive
same,Potency,[11],inactive
same,Potency,[12],inactive
O=S(=O)(N=Cc1c(O)ccc2ccccc12)c1cccs1,Potency,[1],active: 9.35 µM
same,Potency,[9],inactive
same,Potency,[5],"inconclusive [cytotoxic, partial curve, poor fit]"
same,Potency,[13],"inconclusive [cytotoxic, partial curve]"
same,Potency,[10],"inconclusive [cytotoxic, partial curve, poor fit]"
same,Potency,[6],"inconclusive [cytotoxic, single point]"
same,Potency,[7],inactive
same,Potency,[11],"inconclusive [cytotoxic, single point]"
same,Potency,[14],"inconclusive [cytotoxic, partial curve]"
same,Potency,[15],"inconclusive [cytotoxic, partial curve]"
same,Potency,[12],"inconclusive [rising, partial curve, poor fit]"
same,Potency,[8],"inconclusive [cytotoxic, partial curve]"
COc1cc2nccc(Oc3ccc(NC(=O)NC4CC4)c(Cl)c3)c2cc1C(N)=O,Potency,[2],active: 14.8 µM
same,Potency,[7],active: 5.9 µM
same,Potency,[15],active: 16.6 µM
same,Potency,[12],active: 20.9 µM
O=C(O)c1ccc2cc(-c3ccc(O)c(C45CC6CC(CC(C6)C4)C5)c3)ccc2c1,max response,[16],inactive: 9.89%
same,Potency,[2],active: 5.26 µM
same,Potency,[3],"inconclusive [inhibitor, full curve]"
same,Potency,[9],inactive
same,Potency,[4],"inconclusive [cytotoxic, partial curve]"
same,Potency,[6],"inconclusive [cytotoxic, full curve, poor fit]"
same,Potency,[14],"inconclusive [cytotoxic, single point]"
same,Potency,[15],active: 16.6 µM
CC[C@H](Nc1ncnc2nc[nH]c12)c1nc2cccc(F)c2c(=O)n1-c1ccccc1,Potency,[2],"inconclusive [cytotoxic, partial curve]"
same,Potency,[3],"inconclusive [inhibitor, partial curve, poor fit]"
same,Potency,[4],active: 14.8 µM
same,Potency,[6],inactive
same,Potency,[11],"inconclusive [cytotoxic, full curve, poor fit]"
same,Potency,[14],"inconclusive [cytotoxic, partial curve, poor fit]"
same,Potency,[15],"inconclusive [cytotoxic, full curve, poor fit]"
same,Potency,[12],"inconclusive [cytotoxic, partial curve]"
CN1CCC(CNc2ccc3ncc(-c4cccc(OC(F)(F)F)c4)n3n2)CC1,Potency,[1],active: 4.18 µM
same,Potency,[2],active: 18.7 µM
same,Potency,[3],active: 24.1 µM
same,Potency,[4],active: 26.4 µM
same,Potency,[10],active: 10.5 µM
same,Potency,CASKI,"inconclusive [cytotoxic, partial curve, poor fit]"
same,Potency,PA-1,inactive
same,Potency,[17],active: 31.3 µM
CCC(=C(c1ccccc1)c1ccc(OCCN(C)C)cc1)c1ccccc1,max response,[16],inactive: -26.2%
same,Potency,[9],"inconclusive [inhibitor, single point]"
same,Potency,[4],"inconclusive [cytotoxic, partial curve]"
same,Potency,[13],"inconclusive [cytotoxic, single point]"
same,Potency,[14],"inconclusive [cytotoxic, single point]"
same,Potency,[12],"inconclusive [cytotoxic, full curve, poor fit]"
same,Potency,[8],active: 20.9 µM
